# Where a name gives a salt, the structure may show the parent alone. The list shows a part of the results. Cut-off read from the data, not from the text of the source: active = -2 or less and inactive = the rest. Single values are uncertain, as repeats are few or missing.
# System: hPSC-derived cortical neurons (WA09)
# Experiment: nuclei number (viability) z-score; higher = more surviving cells
# Details: 5 µM; treatment: days 7-14 after plating, readout day 21
# 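Note: nuclei counted from DAPI counterstain by automated high-content image analysis, four fields per well at ×20 in 384-well plates, with sequential b-score then z-score normalization.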
row,Compound,nuclei number (z-score)
1,C/C=C(\C)C(=O)N[C@@H](c1ccccc1)[C@@H](O)C(=O)O[C@H]1C[C@@]2(O)[C@@H](OC(=O)c3ccccc3)[C@@H]3[C@]4(OC(C)=O)CO[C@@H]4C[C@H](O)[C@@]3(C)C(=O)[C@H](OC(C)=O)C(=C1C)C2(C)C [Cephalomannine],inactive: -0.997
2,NCCc1c[nH]c2ccc(O)cc12 [Serotonin HCl],inactive: 0.00834
3,C[C@@H]1CC[C@H]2[C@@H](C)C(=O)O[C@@H]3O[C@@]4(C)CC[C@@H]1[C@]32OO4 [Artemisinin],inactive: 0.971
4,CCC1(c2cccc(O)c2)CCCCN(C)C1 (centres undefined) [Meptazinol HCl],inactive: -0.0265
5,Cc1c(Cl)c(OCC(=O)N2CCN(C)CC2)nc2sc(C(=O)NC3CC3)c(N)c12,inactive: 1.35
6,C#C[C@]1(O)C=C[C@H]2[C@@H]3CCC4=CC(=O)CC[C@@H]4[C@H]3CC[C@@]21CC [Gestodene],inactive: -0.191
7,NCC(=O)O.[C-]#[O+].[C-]#[O+].[C-]#[O+].[Cl][Ru],inactive: 1.63
8,Cc1cccc([C@H](C)c2c[nH]cn2)c1C [Dexmedetomidine],inactive: 0.145
9,Cc1cccc([C@H](C)c2c[nH]cn2)c1C [Dexmedetomidine HCl],inactive: 0.0087
10,"OCC(Br)(Br)Br [2,2,2-Tribromoethanol]",inactive: -0.244
11,C[C@@]12N[C@@H](Cc3ccccc31)c1ccccc12 [(-)-MK 801 Maleate],inactive: -0.0489
12,CC(=O)OC12COC1CC(O)C1(C)C(=O)C(O)C3=C(C)C(O)CC(O)(C(OC(=O)c4ccccc4)C21)C3(C)C (centres undefined) [10-Deacetylbaccatin-III],inactive: -0.256
13,O=P1(NCCCl)OCCCN1CCCl (centres undefined) [Ifosfamide],inactive: -0.185
14,NC(=O)CN1CCCC1=O [Piracetam],inactive: 0.0558
15,CN(CC[C@H](N)CC(=O)N[C@@H]1C=C[C@@H](n2ccc(N)nc2=O)O[C@H]1C(=O)O)C(=N)N [Blasticidin S HCl],active: -6.86
16,O=C(Oc1ccc([N+](=O)[O-])cc1)N1CCC(C(O)(c2ccc3c(c2)OCO3)c2ccc3c(c2)OCO3)CC1,inactive: 0.579
17,COc1cc2c(cc1OC)C1CC(=O)C(CC(C)C)CN1CC2 (centres undefined) [Tetrabenazine (Xenazine)],inactive: 0.841
18,O=C1CCC[C@@H]2[C@H]3CCCN4CCC[C@@H](CN12)[C@@H]34 [(+)-Matrine],inactive: 0.773
19,Cc1cccc(C)c1NC1=NCCCS1 [Xylazine HCl],inactive: -0.312

# Source: the supplement of paper PMC11348887
